{"source": "ChEMBL document CHEMBL4888484", "about": "“Replenishing the malaria drug discovery pipeline: Screening and hit evaluation of the MMV Hit Generation Library 1 (HGL1) against asexual blood stage Plasmodium falciparum ,using a nano luciferase reporter read-out” (2022)", "note": "The whole screen tested about 150,000 compounds, of which about 540 (0.36%) showed an effect of 50% or more. The list shows a part of the results.", "data": [{"system": "Plasmodium falciparum", "assay": "Primary screen in NF54 nanoGlo assay, in single point, at 2uM, 72h; a lower Z score goes with more inhibition", "assay_type": "functional, Erythrocyte", "settings": "timepoint 72 hour", "units": {"% Inhibition": "%"}, "values": [{"compound": "Cn1nc(NC(=O)c2ccccc2)c2c1CCN(C(=O)C1CCCCC1)C2", "% Inhibition": -22, "Z score": 1.98}, {"compound": "O=C(C[C@H]1CCOC1)N1CCCN(C2CCCCC2)CC1", "% Inhibition": -12, "Z score": 1.56}, {"compound": "CCc1ccc2ncn(CC3CCOCC3)c(=O)c2c1", "% Inhibition": -2, "Z score": 0.32}, {"compound": "Cn1ncc(NC(=O)Cn2ccc3cc(-c4ccc(CO)cc4)ccc32)n1", "% Inhibition": -12, "Z score": 2.07}, {"compound": "Cc1nccc(CCC(=O)Nc2nc(C(C)C)cs2)n1", "% Inhibition": -2, "Z score": 0.42}, {"compound": "Cn1ccnc1-c1nccn1CCS(C)(=O)=O", "% Inhibition": -19, "Z score": 2.21}, {"compound": "CCn1cnnc1-c1nn(C)c2c1CN(C(=O)Cc1ccccc1F)CC2", "% Inhibition": -12, "Z score": 1.77}, {"compound": "C[C@@H](c1nc(C(C)(C)C)no1)N1CCN(c2nccs2)CC1", "% Inhibition": -12, "Z score": 1.75}, {"compound": "CCCN1CCCCC1C(=O)NC1CCc2nccn2C1", "note": "(configuration not stated)", "% Inhibition": -1, "Z score": 0.28}, {"compound": "COc1ccc(CN2CC[C@@H]2CNC(=O)c2cn(CC(N)=O)nn2)cc1", "% Inhibition": -3, "Z score": 0.63}, {"compound": "O=C(NCCc1csc(=O)[nH]1)c1nc2ccccc2cc1C1CC1", "% Inhibition": -4, "Z score": 0.56}, {"compound": "O=C(c1ccc(Cl)o1)N(Cc1ccco1)c1ccccn1", "% Inhibition": -12, "Z score": 1.89}, {"compound": "CCCc1ccccc1NC(=O)NC1CCS(=O)(=O)CC1", "% Inhibition": -12, "Z score": 1.97}, {"compound": "CC(C)Cc1nsc(N[C@@H](CCCO)c2ccccc2)n1", "% Inhibition": -10, "Z score": 1.11}, {"compound": "CCOC(=O)C[C@H](Nc1nc(N2CCOCC2)nc(N2CCOCC2)n1)c1ccccc1Cl", "% Inhibition": 2, "Z score": -0.24}, {"compound": "O=C(NCc1cccc(-c2ncc[nH]2)c1)[C@H]1CCCC[C@@H]1C(F)(F)F", "% Inhibition": -4, "Z score": 0.71}, {"compound": "CN(CC(C)(CO)CO)C(=O)c1ccsc1", "% Inhibition": 6, "Z score": -0.9}, {"compound": "Nc1ncc(CCC(=O)N[C@H]2CCN(C3CCCCC3)C2=O)s1", "% Inhibition": 0, "Z score": 0.06}, {"compound": "Cc1nc(CCN2CCC(c3cc[nH]n3)CC2)cs1", "% Inhibition": -3, "Z score": 0.61}, {"compound": "O=C(CN1CCN(Cc2nnsc2Cl)CC1)N1CCCc2ccccc21", "% Inhibition": -16, "Z score": 1.84}, {"compound": "COc1ccc(CN(CCN2CCOCC2)C(=O)c2cc3cc(F)ccc3[nH]2)cc1OC", "% Inhibition": -7, "Z score": 1.01}, {"compound": "Cc1ccc(C(=O)NC[C@H]2CCS(=O)(=O)C2)o1", "% Inhibition": -2, "Z score": 0.31}, {"compound": "c1cnn(-c2cncc(N3CCC4(CCCCCC4)C3)n2)c1", "% Inhibition": 5, "Z score": -0.78}, {"compound": "Cc1ccc(C2C(=O)N(C3CCCC(C)C3C)CC(=O)N2CCc2ccccc2)cc1", "note": "(configuration not stated)", "% Inhibition": -1, "Z score": 0.07}, {"compound": "O=C(Nc1csc(-c2ccncc2)n1)[C@@H]1CCCO1", "% Inhibition": -10, "Z score": 1.79}, {"compound": "CC(C)n1ncnc1-c1ccc(C(=O)N2CCC[C@H](C(N)=O)C2)cc1", "% Inhibition": -4, "Z score": 0.69}, {"compound": "CC(C)(C)OC(=O)N[C@H]1CN(C(=O)CO)C[C@@H]1c1cccc(F)c1", "% Inhibition": -4, "Z score": 0.49}, {"compound": "O=C1NC2(CCN(C(=O)c3cnccc3C(F)(F)F)CC2)CO1", "% Inhibition": -8, "Z score": 1.1}, {"compound": "O=C(C(O)c1ccccc1)N1N=C(C2CCCCC2)CC1(O)C(F)(F)F", "note": "(configuration not stated)", "% Inhibition": 16, "Z score": -1.86}, {"compound": "O=C(c1ccco1)N1CC[C@H](OCc2ccccc2)C1", "% Inhibition": -9, "Z score": 1.03}, {"compound": "Cc1cc(N2CCOCC2)c(F)cc1[C@](C)(O)C#Cc1ccccc1", "% Inhibition": -7, "Z score": 0.97}, {"compound": "O=C(c1cnn2c1OCCC2)N1CCCCCCC1", "% Inhibition": -8, "Z score": 1.65}, {"compound": "COc1cccc(NC(=O)Nc2cnsn2)c1", "% Inhibition": 0, "Z score": -0.07}, {"compound": "C[C@@H]1CN(C(=O)c2nc3ccc(Cl)cn3c2CNCCc2ccccc2F)C[C@H](C)O1", "% Inhibition": -11, "Z score": 1.88}, {"compound": "COc1cc(-c2nn(CNc3ccccc3)c(=S)o2)cc(OC)c1OC", "% Inhibition": 7, "Z score": -0.82}, {"compound": "CC1=NN(c2ccccc2)C(=O)C12Cc1ccc(Cl)cc1N1CCCCC12", "note": "(configuration not stated)", "% Inhibition": 8, "Z score": -1.22}, {"compound": "CC(C)Cn1ccc(C(=O)N2C[C@@H](C)Cn3ncnc32)n1", "% Inhibition": -2, "Z score": 0.34}, {"compound": "CC(=O)NCC(=O)Nc1c(C)cnn1C1CCCC1", "% Inhibition": -6, "Z score": 1.03}, {"compound": "CCCCn1nc(CC2CCN(C)CC2)nc1-c1cnc(C)cn1", "% Inhibition": 1, "Z score": -0.14}, {"compound": "O=C(NCCC(=O)N1CCCCCC1)c1ccc(=O)n(-c2ccccc2F)n1", "% Inhibition": 0, "Z score": -0.05}, {"compound": "COc1ccc(CN2C(=O)C3Cc4ccccc4CN3CC2(C)C(=O)NC2CCCCCC2)cc1", "note": "(configuration not stated)", "% Inhibition": -4, "Z score": 0.41}, {"compound": "CN(Cc1ccon1)[C@H]1CCN(C(C)(C)C)C1=O", "% Inhibition": -6, "Z score": 0.78}, {"compound": "CN(C)c1ccnc(NC(=O)NC(C)(C)C(=O)NCC(C)(C)C)n1", "% Inhibition": -12, "Z score": 2.29}, {"compound": "Cc1ccc(OCC(=O)N2CC3CC2CO3)cc1", "note": "(configuration not stated)", "% Inhibition": -20, "Z score": 2.37}, {"compound": "CCOc1ccc(C(=O)N2CCCN(c3ccc(=O)n(-c4ccc(C)c(C)c4)n3)CC2)cc1OCC", "% Inhibition": 19, "Z score": -2.16}, {"compound": "O=C(OCc1ccccc1)N1CCN(C(=O)c2cccc3[nH]c(CO)nc23)CC1", "% Inhibition": 3, "Z score": -0.6}, {"compound": "Oc1c(Cl)cc(Cl)cc1CNc1cnc2ccccc2c1", "% Inhibition": 0, "Z score": 0.02}, {"compound": "CCOc1ccccc1NC(=O)CS(=O)(=O)CC(=O)Nc1ccccc1", "% Inhibition": 1, "Z score": -0.13}, {"compound": "CCC(CC)C(=O)N1C[C@@H]2OCC(=O)N(CC3CC3)[C@@H]2C1", "% Inhibition": -6, "Z score": 0.96}, {"compound": "O=C(NC[C@@H](c1ccsc1)N1CCCC1)c1cccc(Cl)c1", "% Inhibition": 20, "Z score": -2.31}, {"compound": "CCN(C(=O)[C@H]1CCCN(C2CCN(Cc3ccncc3)CC2)C1)C(C)C", "% Inhibition": -8, "Z score": 1.71}, {"compound": "Cc1oc(-c2ccc(C(=O)NCCN(C)C)cc2)nc1CN1CCc2ccccc21", "% Inhibition": -14, "Z score": 1.84}, {"compound": "CCOc1ccc(N2C(=O)C[C@H](NC3CCN(c4ncc(C(F)(F)F)cc4Cl)CC3)C2=O)cc1", "% Inhibition": 4, "Z score": -0.43}, {"compound": "Cc1nc(-c2csc(S(=O)(=O)N3CCC[C@H](C(=O)N4CCN(C)CC4)C3)c2)no1", "% Inhibition": 2, "Z score": -0.47}, {"compound": "CCOC(=O)CNS(=O)(=O)CC1CCCCC1", "% Inhibition": -11, "Z score": 1.63}, {"compound": "COCC1=CCN(C(=O)c2c(O)c(C)nc3ccccc23)CC1", "% Inhibition": -2, "Z score": 0.24}, {"compound": "Cc1nc2nccnc2cc1Br", "% Inhibition": 10, "Z score": -1.12}, {"compound": "Cc1cc(C(=O)Cn2nnc3ccccc3c2=O)c(C)n1[C@H]1CCS(=O)(=O)C1", "% Inhibition": -3, "Z score": 0.47}, {"compound": "O=C(CCc1ccc(F)cc1)NC[C@H]1CCCCCN1", "% Inhibition": -7, "Z score": 1.21}, {"compound": "Nc1ncncc1CNC(=O)c1c(F)cc(C(F)(F)F)cc1F", "% Inhibition": -12, "Z score": 1.45}, {"compound": "O=S(=O)(CCc1cccs1)N[C@H]1CCN(CC2CCCC2)C1", "% Inhibition": -2, "Z score": 0.24}, {"compound": "Cn1cnc(C(=O)N2CCC(OCc3ccc(Cl)c(Cl)c3)CC2)cc1=O", "% Inhibition": 3, "Z score": -0.45}, {"compound": "CCOc1ccc(N2C[C@@H](C(=O)NCCOc3ccccc3)CC2=O)cc1", "% Inhibition": 6, "Z score": -0.94}, {"compound": "CC(=O)c1c(C)[nH]c(C(=O)N2CCCn3nc(C)cc32)c1C", "% Inhibition": -3, "Z score": 0.46}, {"compound": "CS(=O)(=O)CC1(CNc2ncccc2F)CC1", "% Inhibition": 2, "Z score": -0.21}, {"compound": "CC(C)C(=O)N1CCC(NCc2c[nH]nc2-c2cccs2)CC1", "% Inhibition": -12, "Z score": 2.08}, {"compound": "CCCn1nc(C)c(Cn2cc(-c3nccs3)nn2)c1C", "% Inhibition": -21, "Z score": 1.85}, {"compound": "CN(CC(C)(C)CO)c1ncc(C(=O)O)cc1Cl", "% Inhibition": 6, "Z score": -0.74}, {"compound": "CC(C)C[C@H](NC(=O)C1CCC(C(C)C)CC1)C(=O)O", "note": "(some centres not stated)", "% Inhibition": 33, "Z score": -3.69}, {"compound": "Cc1nc(C(=O)NC[C@H]2CN(C3CC3)CCO2)no1", "% Inhibition": -13, "Z score": 1.72}, {"compound": "Cc1ccc(C(=O)N2CCC3(CN(C)C3)C2)c2c1CCC2", "% Inhibition": -7, "Z score": 0.85}, {"compound": "CC(C)(C)OC(=O)N[C@H]1CCN(C(=O)c2c(F)ccc(F)c2F)C1", "% Inhibition": 2, "Z score": -0.47}, {"compound": "CCCS(=O)(=O)N1CC[C@H](c2noc(COCc3ccccc3)n2)C1", "% Inhibition": -10, "Z score": 1.89}, {"compound": "N#CC1CCCCC1OC(=O)CC1CC2CCC1C2", "note": "(configuration not stated)", "% Inhibition": -3, "Z score": 0.41}, {"compound": "O=S(=O)(c1ccccc1F)N1CCN(c2nc3nccc(-c4ccc(Cl)c(Cl)c4)n3n2)CC1", "% Inhibition": -29, "Z score": 2.53}, {"compound": "CC1(C)CC(=O)c2cc(C(=O)NCC3CC3)c(=O)[nH]c2C1", "% Inhibition": -6, "Z score": 0.76}, {"compound": "NC(=O)COc1cccc(C(=O)N2CCC[C@H]2c2cccc3ccccc23)c1", "% Inhibition": 23, "Z score": -2.52}, {"compound": "c1cncc(COC2CCN(Cc3ccc4occc4c3)CC2)c1", "% Inhibition": -6, "Z score": 0.94}, {"compound": "Cc1cc(=O)c(C(=O)Nc2cc(C3CC3)ccn2)c[nH]1", "% Inhibition": -16, "Z score": 2.04}, {"compound": "CC(=O)N1CC[C@H](CN(C)Cc2c(Cl)cccc2N2CCCC2)C1", "% Inhibition": -7, "Z score": 0.7}, {"compound": "N[C@H]1C[C@H](c2cc(NCCCn3nccc3C3CC3)nc(C3CC3)n2)C1", "% Inhibition": 2, "Z score": -0.29}, {"compound": "CC(NC(=O)c1cnns1)C1CN(Cc2ccccc2)CCO1", "note": "(configuration not stated)", "% Inhibition": 11, "Z score": -1.45}, {"compound": "CC(C)(NC(=O)c1ccc(C(F)F)c(F)c1)C1CCOCC1", "% Inhibition": 3, "Z score": -0.43}, {"compound": "CCc1nncn1C1CCN(S(=O)(=O)c2ccccc2C)CC1", "% Inhibition": -13, "Z score": 2.42}, {"compound": "CC(C)CC1(NC[C@]2(O)CCCN(Cc3cccc(F)c3F)C2=O)CC1", "% Inhibition": -3, "Z score": 0.38}, {"compound": "CCCN1CC[C@H](Nc2cc(OC)nc(N)n2)C1", "% Inhibition": 4, "Z score": -0.85}]}]}
